# Read counts are not given, so values of variants with three or more changes are uncertain.
# B1: CPEB3 Ribozyme (parent)
# chain: UAACAGGGGGCCACAGCAGAAGCGUUCACGUCGCAGCCCCUGUCAGAUUCUGGUGAAUCUGCGAAUUCUGCUGUAUAUCUC
# Variants of: B1
# Assay: self-cleavage, relative activity (ratio to wild type); higher = more cleavage; in vitro, sequencing
# Outline: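 Relative activity was defined as the cleaved/total read fraction for a variant divided by the same fraction for the unmutated ribozyme. CPEB3 self-cleaving ribozyme libraries were made by rounds of error-prone PCR, barcoded, and transcribed in vitro with T7 RNA polymerase for 5 hours at 37°C, and cleavage ran through transcription plus a 15 min DNase I step before EDTA. Illumina sequencing of template-switched reverse transcripts gave the reads, and DNA sequencing mapped the barcodes. Averages come from three batches, using variants with at least 5 reads.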
row,Variant,self-cleavage
1,UAACAGGGGGCCGCAGCAGAAGCGUUCACGUCGCUGCCCCUGUCAGGUUCUGGUGAAUCUGCGAAUUCUGCUGUAUGUCUC,0.69
2,UAACAGGGGGCCGCAGCAGAAGCGUUCACGUCGCUGCCCCUGUCAGAUUCGGGUGAAUCUGCGAAUUCUGCUGUAUAUCUC,0.62
3,UAACAGGGGGCCGCAGCAGAAGCGUUCACGUCGCUGCCCCUGUCAGAUUCUGGUGAAUCUGCGAAUUCCGCUGUAUAUCUC,0.14
4,UAACAGGGGGCCGCAGCAGAAGCGUUCACGUCGCAGCCCCUGUCCGAUUCUGGUGAAUCUGCGAAUUCUGGUGUAUAUCUC,0.32
5,UAACAGGGGGCCGCAGCAGAAGCGUUCACGUCGCAGCCCCUGUCGGAUUCUUGUGAGUCAGCGAAUUCUGCUGUAUAUCUC,0.26
6,UAACAGGGGGCCGCAGCAGAAGCGUUCACGUCGCAGCCCCUGUCGGAUCCUGGUGAAUCUGCGAAUUCUGCUGUAUAUCUC,0.15
7,UAACAGGGGGCCGCAGCAGAAGCGUUCACGUCGCAGCCCCUGUCGGAUUCUGGUGAAUCUGCGAAUUCUGCUGUAAAUCUC,0.74
8,UAACAGGGGGCCGCAGCAGAAGCGUUCACGUCGCAGCCCCUGUCUGAUUCUGGUGGAUCUGCGAAUUCAGCUGUAUAUCUC,0.09
9,UAACAGGGGGCCGCAGCAGAAGCGUUCACGUCGCAGCCCCUGUCAGGUUCUGGUGGAUCUGCGAGUUCUGCUGUAUAUCCC,0.05
10,UAACAGGGGGCCGCAGCAGAAGCGUUCACGUCGCAGCCCCUGUCAGGUUCAGGUGUAUCUGCGAAUUCUGCCGUACAUCUC,0.15
11,UAACAGGGGGCCGCAGCAGAAGCGUUCACGUCGCAGCCCCUGUCAGUUUCUGGUGAAUCUGCGGAUUCUGCUGUAUAUCUC,0.15
12,UAACAGGGGGCCGCAGCAGAAGCGUUCACGUCGCAGCCCCUGUCAGAUUCUGGUGCAUCUGCGGAUUCUGCUGUAUAUCUC,0.24
13,UAACAGGGGGCCGCAGCAGAAGCGUUCACGUCGCAGCCCCUGUCAGAUUCUGGUGGAUCUGCGAGUUCUGCUGUAUAUCUC,0.15
14,UAACAGGGGGCCGCAGCAGAAGCGUUCACGUCGCAGCCCCUGUCAGAUUCUGGUGGAUCUGCCAAUUCUGCAGUAUAUCUC,0.26
15,UAACAGGGGGCCGCAGCAGAAGCGUUCACGUCGCAGCCCCUGUCAGAUUCUGGUGACUCUGCGAUUUCUGCUGUAUAUCUC,0.45
16,UAACAGGGGGCCGCAGCAGAAGCGUUCACGUCGCAGCCCCUGUCAGAUUCUGGUGAGUCUGCGAGUUCAGCUGUAUAUCUC,0.11
17,UAACAGGGGGCCGCAGCAGAAGCGUUCACGUCGCAGCCCCUGUCAGAUUCUGGUGAGUCUGCAAAUUCUGCUGUAUAUCUC,0.41

row,Variant,self-cleavage
1,UAACAGGGGGCCGCAGCAGAAGCGUUCACGUCGCAGCCCCUGUCAGAUUCUGGUGAGUCAGCGAAUUCAGCUGUAUAUCCC,0.23
2,UAACAGGGGGCCGCAGCAGAAGCGUUCACGUCGCAGCCCCUGUCAGAUUCUGGUGAGUCUGCGAAUCCUGCUGUACAUCUC,0.33
3,UAACAGGGGGCCGCAGCAGAAGCGUUCACGUCGCAGCCCCUGUCAGAUUCUGGUGAAUCUGCGGAUUCUGCUGUUUAUCUC,0.39
4,UAACAGGGGGCCGCAGCAGAAGCGUUCACGUCGCAGCCCCUGUCAGAUUCUGGUGAAUCUGCGUAUUCAGCUGUAUAUCUC,0.15
5,UAACAGGGGGCCGCAGCAGAAGCGUUCACGUCGCAGCCCCUGUCAGAUUCUGGUGAAUCUGCGUAUUCUGCAGUACAUCUC,0.13
6,UAACAGGGGGCCGUAGCAGGAGCGUACACGUCGCAGUCCCUGUCAGAUUCUGGUGAAUCUGCGAAUUCUGCUGUAUAUCUC,0.23
7,UAACAGGGGGCCGUAGCAGGAGCGUCCACGUCGCAGCCCCUUUCAGAUUCUGGUGAAUCUGCGAAUUCUGCUGUGUAUCUC,0.12
8,UAACAGGGGGCCGUAGCAGAAGCGUUCGCGUCGCAGCCCCAGUCAGAUUCUGGUGAGUCUGCGAAUUCUGCUGUAUAUCUC,0.04
9,UAACAGGGGGCCGCAGAAGAAGCGCUCACGUCGCAGCCCCCGUCAGAUUCUGGAGUAUCUGCGACUUCUGCUGUAUAUCUC,0.04
10,UAACAGGGGGCCGCAGGAGAAGCGUUCGCGGCGCAGCCCCUGUCAGAUUCUGGUGAAUCUGCGAGUUCUGCUGUAUAUCUC,0.05
11,UAACAGGGGGCCGCAGGAGAAGCGUACACAUCGCAGCCCCUGCCAGAUUCUGGUGAAUCUGCGAAUUCUGCUGUAUAUCUC,0.21
12,UAACAGGGGGCCGCAGCAGAAGAGUUCACGUCGCAGCCCCUGUCGGACUCUGGUGAAUCUGCGAAUUCUGCAGUAUAUCUC,0.05
13,UAACAGGGGGCCGCAGCAGAAGGGUUCCCGUCGCAGCCCCUGUCAGAUUCUGGUGAAUCUGCGAAUUCUGCUGUAUAUCUC,0.27
14,UAACAGGGGGCCGCAGCAGAAGGGUUCGCGUCGCAGCCCCUGCCAGAUUCUGGUGAAUCUGCGAAUUCAGCUGUACAUCUC,0.03
15,UAACAGGGGGCCGCAGCAGAAGGGUUCACGUCGCAGCCCCCGUCAGAUUCAGGGGUAUCUGCGAAUUCUGCUGUAUAUCUC,0.06
16,UAACAGGGGGCCGCAGCAGAAGGGUUCACGUCGCAGCCCCUGUCAGAUUCAGGUGAAUCUGCGAAUCCUGCUGCAUAUCUC,0.07
17,UAACAGGGGGCCGCAGCAGAAGUGUUCACGUCGUAGCCCCUGUCAGAUUCUGGUGAAUCUGCGAAUUCUGCUGUAUAUCUC,0.17
